Assay results reported in PMC3448802 (Biochemistry, 2012).

Molecular target: the molecule itself
Experiment: pyrene excimer fluorescence

Row | Protein | binding result
1 | pyrene-labeled apoEC112S/V161C([…]) (natural protein, N-(1-pyrene)maleimide on Cys161 (thioether)) not shown | binds
2 | pyrene-labeled apoEC112S/L181C([…]) (natural protein, N-(1-pyrene)maleimide on Cys181 (thioether)) not shown | binds
